B1: TEV protease; numbered along this chain (parent)
chain: MGESLFKGPRDYNPISSSICHLTNESDGHTTSLYGIGFGPFIITNKHLFRRNNGTLVVQSLHGVFKVKDTTTLQQHLVDGRDMIIIRMPKDFPPFPQKLKFREPQREERICLVTTNFQTKSMSSMVSDTSCTFPSGDGIFWKHWIQTKDGQCGSPLVSTRDGFIVGIHSASNFTNTNNYFTSVPKNFMELLTNQEAQQWVSGWRLNADSVLWGGHKVFMVKPEEPFQPVKEATQL

This assay covers variants of B1. Put plainly: raw area under fraction-flipped curve 0-4 h after induction (AUC4h, not background-subtracted), DNA-recorder readout of cleavage of the substrate (dimensionless); higher = more cleavage of the substrate by the protease variant. Particulars: temperature: 34 °C; time window: 0-4 h after rhamnose induction.

Some of the results follow. Sequences were assembled here from the parent chain. Inactive controls read about 0.05.
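Also: Bxb1 expression induced with 0.2% (w/v) L-rhamnose at OD600 near 0.5, cultures sampled hourly, flipped fraction per protease–substrate barcode pair counted by paired-end Illumina sequencing.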

As to MGESLFKGPRDYNPISSSICHLTNESDGHTTSLYGIGFGPFIITNKHLFRRNNGTLVVQSLHGVFKVKDTTTLQQHLVDGRDMIIIRMPKDFPPFPQKLKFREPQREERICLVTQNFQTKSMSSMVSDTSCTFPSGDGIFWKHWIQTKDGQCGSPLVSTRDGFIVGIHSASNFTNTNNYFTSVPKNFMELLTNQEAQQWVSGWRLNADSVLWGGHKVFMVKPEEPFQPVKEATQL [T115Q], the “area with substrate ECLYFQS” value is 0.109, the “area with substrate EDLYFQS” value worked out at 0.117, the “area with substrate EELYFQS” value came to 0.137 and the “area with substrate EGLYFQS” value turned out to be 0.104. The “area with substrate EILYFQS” value was determined as 0.118, the “area with substrate EKLYFQS” value was found to be 0.119, the “area with substrate ELLYFQS” value was found to be 0.107 and the “area with substrate EMLYFQS” value turned out to be 0.136. Moreover, the “area with substrate EQLYFQS” value worked out at 0.0954, the “area with substrate ERLYFQS” value worked out at 0.0938, the “area with substrate ESLYFQS” value came out at 0.132 and the “area with substrate ETLYFQS” value came to 0.143. The “area with substrate EVLYFQS” value turned out to be 0.125, the “area with substrate EWLYFQS” value was 0.0974 and the “area with substrate EYLYFQS” value was 0.121.

Consider MGESLFKGPRDYNPISSSICHLTNESDGHTTSLYGIGFGPFIITNKHLFRRNNGTLVVQSLHGVFKVKDTTTLQQHLVDGRDMIIIRMPKDFPPFPQKLKFREPQREERICLVTKNFQTKSMSSMVSDTSCTFPSGDGIFWKHWIQTKDGQCGSPLVSTRDGFIVGIHSASNFTNTNNYFTSVPKNFMELLTNQEAQQWVSGWRLNADSVLWGGHKVFMVKPEEPFQPVKEATQL [T115K], for which the “area with substrate ECLYFQS” value was 0.107, the “area with substrate EDLYFQS” value was determined as 0.11, the “area with substrate EELYFQS” value was 0.134 and the “area with substrate EGLYFQS” value came out at 0.114. In addition, the “area with substrate EHLYFQS” value worked out at 0.125, the “area with substrate EKLYFQS” value came to 0.105, the “area with substrate EMLYFQS” value worked out at 0.1 and the “area with substrate EQLYFQS” value turned out to be 0.128. Moreover, the “area with substrate ERLYFQS” value was found to be 0.113 and the “area with substrate ESLYFQS” value is 0.0963.

On to MGESLFKGPRDYNPISSSICHLTNESDGHTTSLYGIGFGPFIITNKHLFRRNNGTLVVQSLHGVFKVKDTTTLQQHLVDGRDMIIIRMPKDFPPFPQKLKFREPQREERICLVTRNFQTKSMSSMVSDTSCTFPSGDGIFWKHWIQTKDGQCGSPLVSTRDGFIVGIHSASNFTNTNNYFTSVPKNFMELLTNQEAQQWVSGWRLNADSVLWGGHKVFMVKPEEPFQPVKEATQL [T115R], for which the “area with substrate ECLYFQS” value was 0.0987, the “area with substrate ELLYFQS” value was 0.0753, the “area with substrate EQLYFQS” value is 0.134 and the “area with substrate ESLYFQS” value worked out at 0.135. Also, the “area with substrate ETLYFQS” value was 0.152 and the “area with substrate EWLYFQS” value came out at 0.127.

For the variant MGESLFKGPRDYNPISSSICHLTNESDGHTTSLYGIGFGPFIITNKHLFRRNNGTLVVQSLHGVFKVKDTTTLQQHLVDGRDMIIIRMPKDFPPFPQKLKFREPQNEERICLVTTNFQTKSMSSMVSDTSCTFPSGDGIFWKHWIQTKDGQCGSPLVSTRDGFIVGIHSASNFTNTNNYFTSVPKNFMELLTNQEAQQWVSGWRLNADSVLWGGHKVFMVKPEEPFQPVKEATQL [R106N], the “area with substrate ECLYFQS” value came out at 0.101, the “area with substrate EMLYFQS” value came to 0.106, the “area with substrate EQLYFQS” value is 0.097 and the “area with substrate ERLYFQS” value worked out at 0.091. Also, the “area with substrate ESLYFQS” value was 0.0778, the “area with substrate ETLYFQS” value turned out to be 0.126, the “area with substrate EVLYFQS” value is 0.0784 and the “area with substrate EYLYFQS” value was determined as 0.0943.

MGESLFKGPRDYNPISSSICHLTNESDGHTTSLYGIGFGPFIITNKHLFRRNNGTLVVQSLHGVFKVKDTTTLQQHLVDGRDMIIIRMPKDFPPFPQKLKFRDPQREERICLVTTNFQTKSMSSMVSDTSCTFPSGDGIFWKHWIQTKDGQCGSPLVSTRDGFIVGIHSASNFTNTNNYFTSVPKNFMELLTNQEAQQWVSGWRLNADSVLWGGHKVFMVKPEEPFQPVKEATQL [E103D]: the “area with substrate ECLYFQS” value came out at 0.12, the “area with substrate EDLYFQS” value was found to be 0.151, the “area with substrate EELYFQS” value came to 0.146 and the “area with substrate EILYFQS” value stood at 0.106. In addition, the “area with substrate ELLYFQS” value is 0.0747, the “area with substrate EMLYFQS” value amounted to 0.088, the “area with substrate EQLYFQS” value turned out to be 0.128 and the “area with substrate ESLYFQS” value came out at 0.0987. Further, the “area with substrate EWLYFQS” value amounted to 0.0882.

Turning to MGESLFKGPRDYNPISSSICHLTNESDGHTTSLYGIGFGPFIITNKHLFRRNNGTLVVQSLHGVFKVKDTTTLQQHLVDGRDMIIIRMPKDFPPFPQKLKFRMPQREERICLVTTNFQTKSMSSMVSDTSCTFPSGDGIFWKHWIQTKDGQCGSPLVSTRDGFIVGIHSASNFTNTNNYFTSVPKNFMELLTNQEAQQWVSGWRLNADSVLWGGHKVFMVKPEEPFQPVKEATQL [E103M], the “area with substrate ECLYFQS” value came out at 0.102, the “area with substrate EDLYFQS” value was 0.0989, the “area with substrate EHLYFQS” value was 0.103 and the “area with substrate EILYFQS” value was determined as 0.0841. The “area with substrate EKLYFQS” value is 0.114, the “area with substrate EPLYFQS” value stood at 0.111, the “area with substrate EQLYFQS” value was 0.122 and the “area with substrate ESLYFQS” value worked out at 0.0977.

As for MGESLFKGPRDYNPISSSICHLTNESDGHTTSLYGIGFGPFIITNKHLFRRNNGTLVVQSLHGVFKVKDTTTLQQHLVDGRDMIIIRMPKDFPPFPQVLKFREPQREERICLVTTNFQTKSMSSMVSDTSCTFPSGDGIFWKHWIQTKDGQCGSPLVSTRDGFIVGIHSASNFTNTNNYFTSVPKNFMELLTNQEAQQWVSGWRLNADSVLWGGHKVFMVKPEEPFQPVKEATQL [K98V], the “area with substrate ECLYFQS” value is 0.126, the “area with substrate EELYFQS” value amounted to 0.112, the “area with substrate EKLYFQS” value was 0.104 and the “area with substrate EMLYFQS” value turned out to be 0.132. Besides, the “area with substrate ERLYFQS” value was 0.139.

On to MGESLFKGPRDYNPISSSICHLTNESDGHTTSLYGIGFGPFIITNKHLFRRNNGTLVVQSLHGVFKVKDTTTLQQHLVDGRDMIIIRMPKDFPPFPQKLKFREPQREERICLVLTNFQTKSMSSMVSDTSCTFPSGDGIFWKHWIQTKDGQCGSPLVSTRDGFIVGIHSASNFTNTNNYFTSVPKNFMELLTNQEAQQWVSGWRLNADSVLWGGHKVFMVKPEEPFQPVKEATQL [T114L], for which the “area with substrate ECLYFQS” value amounted to 0.115, the “area with substrate EGLYFQS” value was determined as 0.095, the “area with substrate EPLYFQS” value came out at 0.145 and the “area with substrate EQLYFQS” value was 0.136. Moreover, the “area with substrate ERLYFQS” value stood at 0.108, the “area with substrate ESLYFQS” value was 0.111, the “area with substrate EWLYFQS” value stood at 0.123 and the “area with substrate EYLYFQS” value was determined as 0.111.

Turning to MGESLFKGPRDYNPISSSICHLTNESDGHTTSLYGIGFGPFIITNKHLFRRNNGTLVVQSLHGVFKVKDTTTLQQHLVDGRDMIIIRMPKDFPPFPQKLKFREPQREERICLVNTNFQTKSMSSMVSDTSCTFPSGDGIFWKHWIQTKDGQCGSPLVSTRDGFIVGIHSASNFTNTNNYFTSVPKNFMELLTNQEAQQWVSGWRLNADSVLWGGHKVFMVKPEEPFQPVKEATQL [T114N], the “area with substrate ECLYFQS” value was found to be 0.19, the “area with substrate EELYFQS” value is 0.129, the “area with substrate EMLYFQS” value is 0.125 and the “area with substrate ERLYFQS” value came out at 0.197. The “area with substrate ESLYFQS” value was determined as 0.087.

Take MGESLFKGPRDYNPISSSICHLTNESDGHTTSLYGIGFGPFIITNKHLFRRNNGTLVVQSLHGVFKVKDTTTLQQHLVDGRDMIIIRMPKDFPPFPQKVKFREPQREERICLVTTNFQTKSMSSMVSDTSCTFPSGDGIFWKHWIQTKDGQCGSPLVSTRDGFIVGIHSASNFTNTNNYFTSVPKNFMELLTNQEAQQWVSGWRLNADSVLWGGHKVFMVKPEEPFQPVKEATQL [L99V]: the “area with substrate ECLYFQS” value turned out to be 0.0776, the “area with substrate EELYFQS” value came to 0.103, the “area with substrate EFLYFQS” value was 0.0893 and the “area with substrate EGLYFQS” value is 0.0774. The “area with substrate EILYFQS” value came to 0.0881, the “area with substrate EKLYFQS” value is 0.0966, the “area with substrate ELLYFQS” value came out at 0.0724 and the “area with substrate EMLYFQS” value worked out at 0.111. The “area with substrate ERLYFQS” value came to 0.0947, the “area with substrate ESLYFQS” value worked out at 0.0883, the “area with substrate ETLYFQS” value was found to be 0.116 and the “area with substrate EVLYFQS” value worked out at 0.105. Moreover, the “area with substrate EYLYFQS” value was found to be 0.105.

As to MGESLFKGPRDYNPISSSICHLTNESDGHTTSLYGIGFGPFIITNKHLFRRNNGTLVVQSLHGVFKVKDTTTLQQHLVDGRDMIIIRMPKDFPPFPQKNKFREPQREERICLVTTNFQTKSMSSMVSDTSCTFPSGDGIFWKHWIQTKDGQCGSPLVSTRDGFIVGIHSASNFTNTNNYFTSVPKNFMELLTNQEAQQWVSGWRLNADSVLWGGHKVFMVKPEEPFQPVKEATQL [L99N], the “area with substrate ECLYFQS” value was found to be 0.108, the “area with substrate EFLYFQS” value came out at 0.0822, the “area with substrate EGLYFQS” value was determined as 0.117 and the “area with substrate EILYFQS” value is 0.0577. Further, the “area with substrate EKLYFQS” value is 0.117, the “area with substrate EQLYFQS” value stood at 0.0972, the “area with substrate EVLYFQS” value turned out to be 0.078 and the “area with substrate EWLYFQS” value is 0.0885.

(Values after the supplement of paper PMC12217912.)
